Results published in PubChem BioAssay AID743255 (National Center for Advancing Translational Sciences (NCATS), 2014).
The whole screen tested about 390,000 compounds, of which about 910 (0.23%) were called active. Inconclusive results (about 5%) are left out. Calls follow the shape of the dose curve; as a rule, active = well fitted inhibition curve with a large enough effect; inconclusive = small, poorly fitted or top-dose-only effect; inactive = no such curve, though single readings can be large or run the other way. The list shows a part of the results, in another mix than the full data.

target: Ubiquitin carboxyl-terminal hydrolase 1 (Homo sapiens) (UniProt O94782); experiment: Inhibitors of USP1/UAF1: Primary Screen; settings: recombinant USP1/UAF1, Ub-Rhodamine cleavage fluorescence; activity change, negative = inhibition: at 57.1 µM (top of the series); also: nearly all actives have a fitted effect of over 60% in size
Chain of UniProt O94782 (O94782 whole entry, looked up): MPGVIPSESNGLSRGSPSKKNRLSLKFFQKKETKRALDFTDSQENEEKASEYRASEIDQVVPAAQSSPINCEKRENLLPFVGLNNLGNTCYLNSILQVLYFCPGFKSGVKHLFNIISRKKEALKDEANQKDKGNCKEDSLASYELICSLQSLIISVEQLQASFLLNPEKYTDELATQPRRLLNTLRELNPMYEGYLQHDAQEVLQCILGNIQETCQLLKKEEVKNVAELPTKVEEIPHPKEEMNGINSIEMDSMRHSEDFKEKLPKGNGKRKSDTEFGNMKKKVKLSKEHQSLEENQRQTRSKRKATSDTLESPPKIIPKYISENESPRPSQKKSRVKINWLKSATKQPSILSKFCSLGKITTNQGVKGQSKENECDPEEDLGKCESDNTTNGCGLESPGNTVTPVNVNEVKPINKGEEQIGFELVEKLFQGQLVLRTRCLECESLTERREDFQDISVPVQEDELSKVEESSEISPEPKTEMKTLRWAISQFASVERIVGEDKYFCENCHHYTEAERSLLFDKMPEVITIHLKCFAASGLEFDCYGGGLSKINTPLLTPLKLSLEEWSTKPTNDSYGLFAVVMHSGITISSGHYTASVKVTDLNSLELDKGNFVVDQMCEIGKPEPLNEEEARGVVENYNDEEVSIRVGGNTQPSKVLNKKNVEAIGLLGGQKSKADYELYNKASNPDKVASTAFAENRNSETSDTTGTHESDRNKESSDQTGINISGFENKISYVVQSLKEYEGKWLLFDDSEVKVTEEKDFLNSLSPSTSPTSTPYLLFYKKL
Summary of the method: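 High-throughput fluorogenic screen: 1nM USP1/UAF1 complex, Ub-Rho substrate 150nM final, 50mM HEPES pH 7.8 with 0.5mM EDTA, 0.1 mg/ml BSA, 1mM TCEP and 0.01% Tween-20.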
% is scaled to controls: 0 for no effect and ±100 for the full control effect; potency is read from the fitted curve at half-maximal effect.

Compound | activity change, negative = inhibition | Potency
Cc1ccc(-c2nn3c(C)nnc3c3ccccc23)cc1S(=O)(=O)NC(C)(C)CO | inactive: -19.4% | 
CC1=NN(c2ccccc2)C(=O)/C1=C\C=C1\N(C)c2ccccc2C1(C)C | inactive: -23.5% | 
O=c1c2ccccc2c(/C=N/c2ncn[nH]2)c(O)n1Cc1ccccc1 | inactive: -12.2% | 
COc1ccc2[nH]c(S(=O)Cc3ncc(C)c(OC)c3C)nc2c1 (configuration not stated) | inactive: -23.2% | 
C[C@H](NC(=O)c1[nH]cnc1C(=O)N[C@@H](C)CO)c1ccccc1 | inactive: -2.63% | 
COc1ccccc1/C=C/C=N/n1c(C2CCCCC2)n[nH]c1=S | inactive: -7.61% | 
C/C(=N\NC(=O)c1ccccc1F)c1ccc2c(c1)Nc1ccccc1S2 | inactive: 77.9% | 
CCN(C(=O)CCNC(=O)Cn1cnc2ccccc2c1=O)c1cccc(Cl)c1 | inactive: 4.84% | 
Cc1ccc(/C=C2/SC(=S)N(CCC(=O)N3CCOCC3)C2=O)cc1 | inactive: -21% | 
O=C(C[C@@H]1C/C=C\C[C@H](NC(=O)OCC2c3ccccc3-c3ccccc32)C(=O)OC[C@@H]2CCCN2C1=O)N[C@H](CO)Cc1ccccc1 | inactive: -25% | 
COc1ccc(CN(C)C[C@H]2OCc3cnnn3CCCC(=O)N([C@H](C)CO)C[C@@H]2C)cc1 | inactive: -1.62% | 
O=C(NC(Cc1ccccc1)C(=O)O)/C(=C\c1ccc([N+](=O)[O-])cc1)NC(=O)c1ccco1 (configuration not stated) | inactive: -7.27% | 
S=c1[nH]nc(-c2ccc(Cl)cc2)n1Cc1ccccc1 | inactive: -12.8% | 
Cc1cccc(C(=O)O[C@H]2[C@H](Cc3ccccc3)NS(=O)(=O)[C@H]3CC4C=C[C@]23O4)c1 | inactive: -18.7% | 
COC(C[C@H]1O[C@@H]1[C@H](O)[C@H](C)OCc1ccccc1)OC | inactive: -20.9% | 
C=CC[C@@H](CC(=O)N(CCO)Cc1ccccc1)C(=O)N[C@H](COC(=O)[C@@H](CC=C)Cc1ccc(F)cc1)Cc1ccccc1 | inactive: -15.2% | 
COCC(=O)OC1CCn2c1nc1c2C(=O)C(C)=C(NC(C)=O)C1=O (configuration not stated) |  | active: 4.47 µM
COc1cc(/C=C2\S/C(=N/S(=O)(=O)Cc3ccccc3)NC2=O)c([N+](=O)[O-])cc1OC | inactive: -14.5% | 
C[C@@H]1CN([C@@H](C)CO)C(=O)CCCn2nncc2CO[C@@H]1CN(C)C(=O)Nc1ccc2c(c1)OCO2 | inactive: -24.7% | 
O=C(CCn1c(=O)c2cccn2c2ccc(F)cc21)NCCc1ccccc1 | inactive: 11.9% | 
CN(/N=C/c1ccc(N(C)C)cc1)C1=NS(=O)(=O)c2ccccc21 | inactive: 75.8% | 

Compound | activity change, negative = inhibition | Potency
O=C(C[C@H]1C/C=C\C[C@H](NC(=O)OCC2c3ccccc3-c3ccccc32)C(=O)O[C@H](c2ccccc2)CNC1=O)N[C@H](CO)Cc1ccccc1 | inactive: -16.6% | 
O=c1cc2c(c(-c3ccccc3)n1Cc1ccccc1)[C@@H](CCO)NC2 | inactive: -20.2% | 
N#C/C(=C/c1ccc(N2CCCCC2)o1)C(=O)Nc1ccc2ccccc2c1 | inactive: 34.4% | 
C[C@H](CO)N1C[C@H](C)[C@@H](CN(C)C(=O)c2ccccc2)OCc2cnnn2CCCC1=O | inactive: -12.3% | 
N#Cc1ccccc1NC(=O)CSc1nc(-c2ccccc2)cc(C(F)(F)F)c1C#N | inactive: 329% | 
[O-]C(=C(C(=S)Nc1cccc2ccccc12)[n+]1ccccc1)c1ccc2c(c1)OCCO2 | inactive: -23% | 
C[C@]12C(=O)N(c3ccc(Br)cc3)C(=O)N1[C@@H]1c3ccccc3OC[C@@H]1[C@H]2c1ccccc1 | inactive: 14.1% | 
OCC[C@H]1C[C@@H](O)[C@H](O)[C@@]2(CCCCO2)O1 | inactive: -24.7% | 
CCOC(=O)c1c(-c2ccccc2)csc1NC(=O)/C(C#N)=C\c1ccc(O)c(OC)c1 |  | active: 15.8 µM
C=C(C)C(=O)Nc1cccc(C2=NOC3(C2)C[C@H](C(N)=O)N(C(=O)c2ccccc2C(=O)c2ccccc2)C3)c1 (some centres not stated) | inactive: 23.2% | 
S=C1Cc2ccccc2N1 |  | active: 28.2 µM
COc1ccc([C@H]2C[C@@H](O)[C@H](n3cc(-c4ccc(F)cc4)nn3)CN2C(=O)C2CCCCC2)cc1 | inactive: -19.3% | 
C[C@H](CO)N1C[C@H](C)[C@H](CN(C)S(=O)(=O)c2ccc(Oc3ccccc3)nc2)OCc2cnnn2CCCC1=O | inactive: -17.4% | 
CC(C)(C)C(=O)[C@@H]1[C@@H]2C(=O)N(C3CCCCC3)C(=O)[C@@H]2[C@H]2c3ccccc3C=CN12 |  | active: 25.1 µM
CC(C)(C)[C@@H]1COC(=O)[C@@H](Cc2ccc(F)cc2)CC/C=C\C[C@@H](CC(=O)N(CCO)Cc2ccccc2)C(=O)N1 | inactive: -25.4% | 
C[C@H](CO)N1C[C@H](C)[C@@H](CN(C)C(=O)C2CCCCC2)OCc2cnnn2CCCC1=O | inactive: -4.81% | 
C[C@H]1Cn2cnc(C(=O)Nc3cccc(Cl)c3)c2C(=O)N1 | inactive: -25.4% | 
Cc1ccc(C(=O)N/C(=C/C=C\c2ccccc2)C(=O)NCc2ccco2)cc1 | inactive: -12.2% | 
CCN(CCCNC(=O)c1cc2c(=O)n(CC)c3ccccc3c2s1)Cc1ccccc1 |  | active: 28.2 µM
COc1ccc(N2CCN(C(=O)c3ccc4c(=O)n(CCc5ccc(OC)c(OC)c5)c(=O)[nH]c4c3)CC2)cc1 | inactive: -9.75% | 
CCOC(=O)c1sc2nc3c(SCCC(=O)O)cc(C(=O)c4cc(OC)ccc4O)cn3c(=O)c2c1C | inactive: 12% | 
